Test system: MKK4 (P-MKK4/MKK4) in brain of MCAo rats
Conditions: 11 mg/kg 30 min before MCAO; n=3; two-way ANOVA interaction >0.05

TAT-spacer-GADD45β60–86: cell-permeable MKK7 inhibitor peptide with spacer between TAT and GADD45β residues 60–86
basal activity of MKK4 (P-MKK4/MKK4), in words: modest, but not significant, increase
